Measured values reported in the supplement of paper PMC9446081.
About 220 (0.56%) of roughly 39,000 compounds showed activity. The list shows a part of the results.

tested on: Escherichia coli K-12 BW25113; assay: relative growth (OD600 normalised to plate interquartile mean) (fraction); higher = less growth inhibition, active = 0.2 or less; conditions: 50 µM; LB; incubation time: overnight (16-24 h)
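Note: static incubation at 37 °C against the wild-type strain, values averaged over two biological replicates.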

| SMILES | relative growth |
| --- | --- |
| CNc1cccc(CN)c1 | inactive: 1 |
| O=C(NO)c1cn(-c2ccc(C[C@H]3C(=O)O[C@@H](Cc4ccccc4)[C@H]4C=C(/C=C/C5CC5)CN43)cc2)nn1 | inactive: 0.966 |
| C[C@H]1CN([C@@H](C)CO)C(=O)Cc2cc(NC(=O)Nc3cccc4ccccc34)ccc2O[C@H]1CN(C)C(=O)Nc1ccc(C(F)(F)F)cc1 | inactive: 1 |
| NC(=O)[C@H]1[C@H](C(=O)O)[C@@H]2C=C[C@H]1C2 | inactive: 1.01 |
| O=C1c2ccccc2[C@@]2(Cc3ccccc3N(CC(F)(F)F)C2=O)[C@H](c2ccc(CO)cc2)N1C1CCCCC1 | inactive: 1.01 |
| CCCCCN1CC=C[C@@]23O[C@@H]4C=CCOC(=O)[C@@H]4[C@H]2C(=O)N([C@@H](C)CO)[C@@H]3C1=O | inactive: 0.968 |
| C[C@@H]1CN([C@@H](C)CO)C(=O)c2cc(C#CC3(O)CCCC3)cnc2O[C@H]1CN(C)S(=O)(=O)c1cccc(F)c1 | inactive: 1.02 |
| COc1ccc(NC(=O)N(C)C[C@@H]2Oc3c(NS(=O)(=O)c4cn(C)cn4)cccc3C(=O)N([C@H](C)CO)C[C@@H]2C)cc1 | inactive: 0.983 |
| C[C@@H]1CN([C@@H](C)CO)C(=O)Cc2cc(NS(=O)(=O)c3ccc(F)cc3)ccc2O[C@H]1CN(C)S(=O)(=O)c1cn(C)cn1 | inactive: 0.985 |
| CC(C)NC(=O)N(C)C[C@H]1Oc2ccc(NC(=O)CCN3CCOCC3)cc2CC(=O)N([C@H](C)CO)C[C@H]1C | inactive: 0.99 |
| COCC(=O)N(C)C[C@@H]1Oc2cc(C#CC(C)(C)O)ccc2S(=O)(=O)N([C@@H](C)CO)C[C@H]1C | inactive: 1 |
| O=C(CCCCCNC(=O)OCc1ccc(CO[C@@H]2C[C@H](c3ccc(C(F)(F)F)cc3)C=C(C(=O)N3CCCCCCC3)O2)cc1)NO | inactive: 1.02 |
| CC[C@H](C)[C@H]1O[C@]2(CC[C@@H]1C)C[C@@H]1C[C@@H](C/C=C(\C)[C@@H](O[C@H]3C[C@H](OC)[C@@H](O[C@H]4C[C@H](OC)[C@@H](O)[C@H](C)O4)[C@H](C)O3)[C@@H](C)/C=C/C=C3\CO[C@@H]4[C@H](O)C(C)=C[C@@H](C(=O)O1)[C@]34O)O2 | inactive: 0.934 |
| NCCNC(=O)Cc1ccc(O)cc1 | inactive: 0.967 |
| Cc1noc(C)c1CC(=O)N1CCCC[C@@H]1CCOc1cccc(CN(C)Cc2cccc3cccnc23)c1 | inactive: 0.985 |
| [N-]=[N+]=Nc1ccccc1[C@@H]1OC(c2ccc(OCCCO)cc2)=N[C@]1(CCS(=O)(=O)c1ccccc1)C(=O)NCc1ccccc1 | inactive: 1.05 |
| C[C@@H]1CCCCO[C@H](CN(C)Cc2ccc3c(c2)OCO3)[C@H](C)CN([C@H](C)CO)C(=O)c2cc(NS(=O)(=O)c3ccccc3)ccc2O1 | inactive: 1.02 |
| Cn1cnc(S(=O)(=O)N[C@@H]2C=C[C@@H](CC(=O)NCC3CC3)O[C@H]2CO)c1 | inactive: 0.906 |
| C[C@H]1CN([C@@H](C)CO)C(=O)c2cc(NC(=O)Cn3cnnn3)ccc2O[C@H]1CN(C)S(=O)(=O)c1ccccc1 | inactive: 0.965 |

| SMILES | relative growth |
| --- | --- |
| COc1ccc(S(=O)(=O)Nc2ccc3c(c2)C(=O)N([C@H](C)CO)C[C@H](C)[C@@H](CN(C)C(=O)CCC(F)(F)F)OCCCC[C@@H](C)O3)cc1 | inactive: 0.995 |
| C[C@@H]1CCCCO[C@@H](CN(C)Cc2ccncc2)[C@H](C)CN([C@H](C)CO)C(=O)c2cc(NC(=O)Nc3ccc(C(F)(F)F)cc3)ccc2O1 | inactive: 0.993 |
| C[C@H]1CN([C@@H](C)CO)C(=O)Cc2cc(NC(=O)c3ccncc3)ccc2O[C@H]1CN(C)Cc1ccc(Oc2ccccc2)cc1 | inactive: 0.99 |
| CCNC(=O)C[C@@H]1C=C[C@@H](NC(=O)C2CC2)[C@@H](CO)O1 | inactive: 0.977 |
| COc1ccc(C#Cc2ccc3c(c2)[C@]2(C(=O)N3)[C@H](C(=O)O)[C@H]3C(=O)O[C@H](c4ccccc4)[C@H](c4ccccc4)N3[C@@H]2c2ccc(O)cc2)cc1 | inactive: 1.02 |
| CO[C@@H]1CN(C)C(=O)c2ccc(NC(=O)Nc3c(C)noc3C)cc2OC[C@@H](C)N(C(=O)Nc2cccc(Cl)c2)C[C@H]1C | inactive: 0.935 |
| Cn1nc(C#N)c2c1CN(S(C)(=O)=O)CCC2 | inactive: 1.05 |
| COC(=O)c1ccc([C@H]2C=C(C(=O)N3CCOCCOCCOCCOCC3)O[C@@H](OCCCCO)C2)cc1 | inactive: 1 |
| CC(C)C#Cc1ccc2c(c1)O[C@H](CN(C)C(=O)c1cnccn1)[C@H](C)CN([C@H](C)CO)S2(=O)=O | inactive: 0.974 |
| COc1ccc(NC(=O)O[C@H]2[C@@H]3OC(=O)[C@@H](Cc4ccc5ccccc5c4)C/C=C/C[C@H](Cc4ccc5ccccc5c4)C(=O)O[C@H]3[C@@H](OC)O[C@@H]2CO)cc1 | inactive: 1.01 |
| O=C(C[C@H]1CC[C@@H]2[C@H](COC[C@H](O)CN2C(=O)c2cnccn2)O1)NCc1ccc(Oc2ccccc2)cc1 | inactive: 1 |
| C[C@H](CO)N1C[C@H](C)[C@H](CN(C)Cc2ccc(C(F)(F)F)cc2)Oc2ccc(NC(=O)C3CCCCC3)cc2CC1=O | inactive: 0.938 |
| C[C@@H]1CN([C@@H](C)CO)S(=O)(=O)c2ccc(C#Cc3ccc(F)cc3)cc2O[C@H]1CN(C)C(=O)c1ccccn1 | inactive: 1.03 |
| CC(C)c1noc(CNC(=O)CN)n1 | inactive: 0.982 |
| C[C@@H]1CCCCO[C@@H](CN(C)Cc2ccc(C(=O)Nc3ccccc3N)cc2)[C@@H](C)CN([C@H](C)CO)C(=O)c2cc(NS(=O)(=O)c3cccs3)ccc2O1 | inactive: 1 |
| Cc1nn(C)cc1NC(=O)C[C@@H]1CC[C@@H]2[C@@H](COc3ccc(NC(=O)C4CCOCC4)cc3C(=O)N2C)O1 | inactive: 0.992 |
| Cc1ccc(/C=c2\sc3ncnn3c2=O)o1 | inactive: 1.02 |
| CC1CCC2C(C)(C)C3CC12CCC3(C)O (stereo not drawn) | inactive: 1.05 |
| C[C@H]1CN([C@@H](C)CO)C(=O)Cc2cc(NC(=O)Cc3cn(C)c4ccccc34)ccc2O[C@H]1CN(C)C(=O)Nc1ccc(C(F)(F)F)cc1 | inactive: 0.992 |
